# “And” between values parts separate entries of the source, which are not always exact repeats. Equal entries are not always repeated. Out of some 270,000 compounds screened, about 5,800 (2.1%) were called active. Inconclusive results, whose numbers are uncertain, are shown with a selection of clear calls. Calls come from the whole dose curve; as a rule, active = well fitted inhibition curve with a large enough effect; inconclusive = small, poorly fitted or top-dose-only effect; inactive = flat fitted curve, though single readings scatter. A potency beside an inconclusive call is a rough fit, not a confirmed value. Some structures have more than one record in an assay (separate samples or runs), and their calls can disagree.
# Biological target: Microtubule-associated protein tau (Homo sapiens) (UniProt P10636)
# Assay: qHTS for Inhibitors of Tau Fibril Formation, Thioflavin T Binding; note: nearly all actives have a fitted effect of over 55% in size
# Conditions: recombinant tau K18 P301L (four-repeat tau fragment), heparin-induced fibrillization, ThT fluorescence; series mostly up to 57.4 µM; activity, negative = inhibition: at the top concentration
# Outline: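 Recombinant human tau K18 fragment […] carrying P301L, 15 uM unlabeled plus 0.24 uM Alexa 594-labeled, was fibrillized with 20 uM heparin in 100 mM sodium acetate pH 7 for 6 hr at 37 C; 30 uM ThT fluorescence read after 1 hr.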
# % is set by controls: 0 for no effect and ±100 for the full control effect; potency is the fitted concentration of half-maximal effect; tags give direction and shape of the fitted curve.
# Sequence of UniProt P10636 (P10636 whole entry, looked up): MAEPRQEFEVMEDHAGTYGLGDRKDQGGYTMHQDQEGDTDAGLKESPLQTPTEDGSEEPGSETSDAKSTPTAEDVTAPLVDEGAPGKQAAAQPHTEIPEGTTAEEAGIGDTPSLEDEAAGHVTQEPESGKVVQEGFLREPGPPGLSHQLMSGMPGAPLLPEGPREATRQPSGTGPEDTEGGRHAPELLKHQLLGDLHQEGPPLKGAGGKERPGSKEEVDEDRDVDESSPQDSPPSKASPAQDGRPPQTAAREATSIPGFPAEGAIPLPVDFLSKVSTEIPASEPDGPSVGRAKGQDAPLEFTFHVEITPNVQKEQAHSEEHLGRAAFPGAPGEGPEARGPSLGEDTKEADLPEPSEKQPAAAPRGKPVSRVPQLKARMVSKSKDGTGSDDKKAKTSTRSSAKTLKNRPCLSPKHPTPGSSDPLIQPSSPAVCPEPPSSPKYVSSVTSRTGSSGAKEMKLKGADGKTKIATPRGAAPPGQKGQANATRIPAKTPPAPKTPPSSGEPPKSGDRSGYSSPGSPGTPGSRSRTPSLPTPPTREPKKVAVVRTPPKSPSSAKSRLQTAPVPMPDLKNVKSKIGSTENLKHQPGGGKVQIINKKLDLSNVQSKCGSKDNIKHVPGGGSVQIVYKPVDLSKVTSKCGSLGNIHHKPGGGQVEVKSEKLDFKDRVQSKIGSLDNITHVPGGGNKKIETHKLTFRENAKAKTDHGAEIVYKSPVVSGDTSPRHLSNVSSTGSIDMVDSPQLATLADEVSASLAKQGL
Structure (SMILES),Potency,"activity, negative = inhibition"
NS(=O)(=O)c1ccc(CCNC(=O)c2ccc3nc(Cc4ccccc4)oc3c2)cc1,"inconclusive: 8.91 µM [inhibitor, partial curve]",–
CC1(OC(=O)c2ccco2)C(=O)C=C2C=C(c3ccc(C#N)cc3)OC=C2C1=O (configuration not stated),"inconclusive: 31.6 µM [inhibitor, single point]",–
O=[N+]([O-])c1cccc2c3c([nH]c12)CCCC3,"inconclusive: 14.1 µM [inhibitor, partial curve, poor fit]",–
CC1(OC(=O)CCc2ccccc2)C(=O)C=C2C=C(c3ccc(C#N)cc3)N(CCc3ccccn3)C=C2C1=O (configuration not stated),active: 28.2 µM,–
Cc1ccccc1C(=O)Nc1ccc2nc(Nc3cccc(C(F)(F)F)c3)cc(C)c2c1,–,inactive: -22.8%
COc1ccc(C(=O)/C=C/Nc2ccc(S(=O)(=O)Nc3onc(C)c3C)cc2)cc1,"inconclusive: 11.2 µM [inhibitor, partial curve]",–
FC(F)(F)c1cccc(N2CCN(Cc3nnc(-c4ccc5c(c4)OCO5)o3)CC2)c1,"inconclusive: 28.2 µM [inhibitor, partial curve]",–
Cc1noc(C)c1C(=O)Nc1sc2c(c1C(N)=O)CCCCC2,–,inactive: -13.7%
Cc1ccc(OCCn2c(C3CC(=O)N(Cc4ccccc4)C3)nc3ccccc32)cc1 (configuration not stated),"inconclusive: 20 µM [inhibitor, single point]",–
O=C(O)CSc1ncnc2scc(-c3ccccc3)c12,–,inactive: -3.42%
CCOC(=O)c1cccc(NC(=O)N2CCC(CN3CCc4ccccc4C3)CC2)c1,–,inactive: -5.03%
Cc1ccccc1OCC(=O)Nc1ccc(OCc2cc(=O)n3ccsc3n2)cc1,"inconclusive: 0.562 µM [inhibitor, full curve]",–
CC(C)=CCc1c(O)c(CC=C(C)C)c2c(c1O)C(=O)CC(c1ccc(O)cc1)O2 (configuration not stated),"inconclusive: 3.98 µM [inhibitor, single point]",–
CCC(CC)Nc1ccc(C(CC(N)=O)NC(=O)Cc2ccc(Br)cc2)cc1[N+](=O)[O-] (configuration not stated),"inconclusive: 2.24 µM [inhibitor, partial curve, poor fit]",–
CCN(c1ccc(OC)cc1)S(=O)(=O)c1nnc(NC(=O)c2ccccc2C)s1,–,inactive: -4.12%
CC1=CN2C(=N)/C(=C/c3ccc(Sc4ccc(C)cc4)o3)C(=O)N=C2S1,active: 7.94 µM,–
Cn1cc(/C=C(\C#N)C(=O)Nc2ncc(Cc3ccc(Cl)cc3)s2)c2ccccc21,"inconclusive: 14.1 µM [inhibitor, partial curve]",–
O=S(=O)(NCCc1cn2ccccc2n1)c1ccc2c(c1)OCCO2,–,inactive: -9.29%
COC(=O)C(Cc1ccc(OC(=O)c2ccc(Cl)cc2)cc1)N1Cc2ccccc2C1=O (configuration not stated),"inconclusive: 39.8 µM [inhibitor, single point]",–
COc1ccc(CCNC(=O)c2cnc3sc(N4CCC(C)CC4)nn3c2=O)cc1OC,–,inactive: -0.0331%
O=C(O)c1cc(-c2ccco2)nc2ccc(Br)cc12,inactive and active: 15.8 µM,–
O=c1oc2ccccc2c(NCc2cccc(F)c2)c1[N+](=O)[O-],–,inactive: 3.86%
CN(C)C(=O)CSc1nc2ccc(N3C(=O)c4ccccc4C3=O)cc2s1,"inconclusive: 35.5 µM [inhibitor, single point]",–

Structure (SMILES),Potency,"activity, negative = inhibition"
CC1CCCC(C)N1/N=C/c1ccccc1C(=O)O (configuration not stated),–,inactive: -4.21%
COc1ccccc1Nc1c2c(nc3ccc(NC(=O)c4cccc(OC)c4OC)cc13)CCCC2,"inconclusive: 28.2 µM [inhibitor, partial curve]",–
Cc1cc(C)cc(-n2nnc(-c3nsc(NC(=O)c4ccccc4Cl)n3)c2C)c1,"inconclusive: 2 µM [inhibitor, full curve]",–
COc1ccc(-c2noc(CSc3nnc(Cc4ccccc4)n3-c3ccc(Cl)cc3)n2)cc1,"inconclusive: 15.8 µM [inhibitor, partial curve]",–
Cn1c(C(=O)NCCN2CCc3ccccc3C2)cc2c(=O)[nH]c3ccccc3c21,"inconclusive: 14.1 µM [inhibitor, partial curve]",–
CCn1c(N2CCN(CC(=O)c3c(C)n(C)c4ccc(OC)cc34)CC2)nc2c1c(=O)[nH]c(=O)n2C,"inconclusive: 10 µM [inhibitor, partial curve]",–
COc1cc(C(=S)N(C)C)ccc1O,"inconclusive: 22.4 µM [inhibitor, single point]",–
C/C(CC(=O)Nc1cc(C)ccn1)=N\NC(=O)c1cccc(C)c1,"inconclusive: 8.91 µM [inhibitor, partial curve]",–
CCOc1ccc(-c2ccc(SCC)nn2)cc1,"inconclusive: 2.24 µM [inhibitor, full curve]",–
CCOc1ccc(Nc2nc3c(c(=O)[nH]2)CCC3)cc1,"inconclusive: 25.1 µM [inhibitor, single point]",–
NC(=O)Cn1c(=O)n(C2CCCCC2)c(=O)c2c3c(sc21)CCCCC3,–,inactive: 3.89%
Nc1ccc(Br)c2c1C(=O)c1ccccc1C2=O,active: 5.01 µM,–
c1ccc(Oc2cccc(OCCCCSc3ncccn3)c2)cc1,"inconclusive: 25.1 µM [inhibitor, partial curve, poor fit]",–
CCOc1ccc2nc(N3CCCC(C(=O)NCc4ccccc4Cl)C3)sc2c1 (configuration not stated),"inconclusive: 2.82 µM [inhibitor, full curve, poor fit]",–
Cc1c(N2C(=O)/C(=C\c3ccc(N(C)C)cc3)N(C)C2=S)c(=O)n(-c2ccccc2)n1C,active: 14.1 µM,–
COc1ccc(CC(=O)NCc2ccc3c(c2)OCO3)cc1,–,inactive: -22.3%
COc1ccc(OC)c(-c2ccc(C(=O)O)o2)c1,"inconclusive: 35.5 µM [inhibitor, partial curve]",–
CCCCCCc1cc2cc(-c3nnc(-c4ccc(C)cc4)o3)c(=O)oc2cc1O,"inconclusive: 20 µM [inhibitor, single point]",–
Cc1nnc(-c2ccc(N3CCCCCC3)c([N+](=O)[O-])c2)o1,"inconclusive: 31.6 µM [inhibitor, partial curve, poor fit]",–
O=C(NCc1cccnc1)C(=O)NCC(c1cccnc1)N1CCN(c2ccccc2)CC1 (configuration not stated),–,inactive: -1.85%
COc1c(C(=O)Nc2ccc(Cc3ccncc3)cc2)ccc2ccccc12,"inconclusive: 2.82 µM [inhibitor, partial curve]",–
O=C(Nc1ccc2nc(-c3ccco3)c(-c3ccco3)nc2c1)N1CCCCCC1,active: 7.08 µM,–
COc1ccc(NC(=O)CSc2nc(O)c(C/C=C/c3ccccc3)c(=O)[nH]2)cc1,"inconclusive: 15.8 µM [inhibitor, partial curve]",–

Structure (SMILES),Potency,"activity, negative = inhibition"
Cc1cc(C(=O)Nc2cnc3ccccc3c2)ccc1[N+](=O)[O-],"inconclusive: 3.55 µM [inhibitor, partial curve]",–
O=C(O)C/C(=C\c1cccc(NC(=O)c2ccccc2Cl)c1)c1nc2ccccc2s1,"inconclusive: 28.2 µM [inhibitor, single point]",–
CCC(c1nnnn1CCc1ccccc1)N(Cc1ccco1)Cc1cc2c(C)ccc(C)c2[nH]c1=O (configuration not stated),"inconclusive: 17.8 µM [inhibitor, partial curve]",–
CCc1ccc(NC(=O)c2cnc3scc(C)n3c2=O)cc1,"inconclusive: 7.94 µM [inhibitor, full curve]",–
Cc1ccc(CNC(=O)C2CCCN(c3nnc(-n4c(C)ccc4C)s3)C2)cc1 (configuration not stated),"inconclusive: 0.1 µM [inhibitor, full curve, poor fit]",–
c1cnc(N2CCN(Cc3c[nH]c4ccccc34)CC2)nc1,–,inactive: -9.06%
Cc1cc(-c2nc3ccccc3[nH]2)ccc1N,"inconclusive: 20 µM [inhibitor, partial curve]",–
COc1ccc(CNc2nc(-c3cccnc3)nn2C(=O)CC(C)C)cc1,"inconclusive: 17.8 µM [inhibitor, partial curve]",–
Cc1c(NC2=C(Cl)C(=O)N(c3ccccc3)C2=O)c(=O)n(-c2ccccc2)n1C,"inconclusive: 22.4 µM [inhibitor, partial curve]",–
Cc1ccc2c(c1)c(=O)c(C(=O)c1ccncc1)cn2CC(=O)Nc1ccccc1Cl,–,inactive: -6.13%
CCOc1cc2c3c(c1)C(C)=CC(C)(C)N3C(=O)C2=O,"inconclusive: 8.91 µM [inhibitor, full curve]",–
CCOc1ccc(N2C(=O)CC(/C=C3/N(C)c4ccccc4C3(C)C)C2=O)cc1 (configuration not stated),"inconclusive: 14.1 µM [inhibitor, partial curve]",–
CCn1cc(Cl)c(C(=O)Nc2ccccc2C(N)=O)n1,–,inactive: -2.28%
CCOC(=O)OCC1OC(c2ccccc2)C=CC1OC(=O)OCC (configuration not stated),–,inactive: -10.3% [at 11.5 µM]
Nc1nc2c(c(=O)[nH]1)C(c1cccc3ccccc13)C1=C(N2)c2ccccc2C1=O (configuration not stated),active: 10 µM,–
O=C(N/N=C/c1ccc(OC(=O)c2ccc3c(c2)OCO3)cc1)c1cncc(Br)c1,"inconclusive: 3.55 µM [inhibitor, partial curve]",–
CCOC(=O)c1c(C)c(C(=O)Nc2ccc(N(C)C)cc2)c(C)n1CC,"inconclusive: 25.1 µM [inhibitor, partial curve]",–
Cc1ccc(C)c(NC(=S)N/N=C/C(C)c2ccccc2)c1 (configuration not stated),–,inactive: -13.4%
CN(Cc1ccccc1)c1nc2nonc2nc1N1CCCC(CN2CCCC2=O)C1 (configuration not stated),"inconclusive: 14.1 µM [inhibitor, partial curve]",–
CN(C)c1ccc(/C=N/Nc2ccc(-n3ccnc3)nn2)cc1,active: 5.01 µM,–
O=[N+]([O-])c1ccc(N/N=C/c2sc(N3CCOCC3)nc2-c2ccccc2)c(S(=O)(=O)Nc2ccc(Cl)cc2)c1,"inconclusive: 25.1 µM [inhibitor, partial curve]",–

# — PubChem BioAssay AID1460 (National Center for Advancing Translational Sciences (NCATS), 2008)
